# Results published in the supplement of paper PMC12217912.
# This is one part of the list. The full chains were built here from the parent and the listed change. Values near 0.05 are background.
# B1: TEV protease; numbered along this chain (parent)
# chain: MGESLFKGPRDYNPISSSICHLTNESDGHTTSLYGIGFGPFIITNKHLFRRNNGTLVVQSLHGVFKVKDTTTLQQHLVDGRDMIIIRMPKDFPPFPQKLKFREPQREERICLVTTNFQTKSMSSMVSDTSCTFPSGDGIFWKHWIQTKDGQCGSPLVSTRDGFIVGIHSASNFTNTNNYFTSVPKNFMELLTNQEAQQWVSGWRLNADSVLWGGHKVFMVKPEEPFQPVKEATQL
# Variants of: B1
# Test: raw area under fraction-flipped curve 0-4 h after induction (AUC4h, not background-subtracted), DNA-recorder readout of cleavage of the substrate (dimensionless); higher = more cleavage of the substrate by the protease variant
# Conditions: temperature: 34 °C; time window: 0-4 h after rhamnose induction
# Protocol: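 In vivo DNA recorder in E. coli TOP10(DE3) ΔrhaA at 34 °C. Each TEVp single-site mutant (parent TEVp 0) is paired with a single-site variant of the 7-mer TEVs (canonical ENLYFQ|S). The substrate sits between flexible linkers in a Bxb1-sfGFP-TEVs-SsrA fusion, so cleavage stabilises Bxb1 and speeds flipping of a recombination array, read by NGS. The value is the raw area under the fraction-flipped curve over 0-4 h after rhamnose induction (AUC4h), with ≥20 reads per time point. It is not background-subtracted; inactive controls average about 0.047.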
# 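Further: Bxb1 expression induced with 0.2% (w/v) L-rhamnose at OD600 near 0.5, cultures sampled hourly, flipped fraction per protease–substrate barcode pair counted by paired-end Illumina sequencing.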
Variant,area with substrate ENLYFQA,area with substrate ENLYFQC,area with substrate ENLYFQD,area with substrate ENLYFQF,area with substrate ENLYFQG,area with substrate ENLYFQH,area with substrate ENLYFQI,area with substrate ENLYFQL,area with substrate ENLYFQM,area with substrate ENLYFQN,area with substrate ENLYFQR,area with substrate ENLYFQS,area with substrate ENLYFQT,area with substrate ENLYFQW,area with substrate ENLYFQY,area with substrate ENLYFQK,area with substrate ENLYFQP,area with substrate ENLYFQV,area with substrate ENLYFQQ,area with substrate ENLYFQE
MGESLFKGPRDYNPISSSICHLTNESDGHTTSLYGIGFGPFIITNKHLFRRNNGTLVVQSLHGVFKVKDTTTLQQHLVDGRDMIIIRMPKDFPPFPQKLKFREPQREERICLVTTNFQTKSMSSMVSDTSCTFPSGDGIFWKHWIQTKDGQCGSPLVSTRDGFPVGIHSASNFTNTNNYFTSVPKNFMELLTNQEAQQWVSGWRLNADSVLWGGHKVFMVKPEEPFQPVKEATQL [I164P],0.0356,0.0459,0.0376,0.0528,0.0449,0.0426,0.0524,0.067,0.047,0.0585,0.0491,0.053,0.0608,0.0623,0.0598,,,,,
MGESLFKGPRDYNPISSSICHLTNESDGHTTSLYGIGFGPFIITNKHLFRRNNGTLVVQSLHGVFKVKDTTTLQQHLVDGRDMIIIRMPKDFPPFPQKLKFREPQREERICLVTTNFQTKSMSSMVSDTSCTFPSGDGIFWKHWIQTKDGQCGSPLVSTRDGFIVGIHSASNFTNTNNYFTSVPKNFYELLTNQEAQQWVSGWRLNADSVLWGGHKVFMVKPEEPFQPVKEATQL [M188Y],0.0853,,,0.0648,,,,0.0542,,0.0784,0.063,0.104,0.065,0.0745,,,,,,
MGESLFKGPRDYNPISSSICHLTNESDGHTTSLYGIGFGPFIITNKHLFRRNNGTLVVQSLHGVFKVKDTTTLQQHLVDGRDMIIIRMPKDFPPFPQKLKFREPQREERICLVTTNFQTKSMSSMVSDTSCTFPSGDGIFWKHWIQTKDGQCGSPLVSTRDGFIVGIHSASNFTPTNNYFTSVPKNFMELLTNQEAQQWVSGWRLNADSVLWGGHKVFMVKPEEPFQPVKEATQL [N175P],0.0792,0.0759,0.0662,0.0494,,0.0457,0.0563,0.0483,0.0595,,,0.0579,,,0.0672,0.0471,0.0521,0.0648,,
MGESLFKGPRDYNPISSSICHLTNESDGHTTSLYGIGFGPFIITNKHLFRRNNGTLVVQSLHGVFKVKDTTTLQQHLVDGRDMIIIRMPKDFPPFPQKLKFREPQREERICLVTTNFQTKSMSSMVSDTSCTFPSGDGIFWKHWIQTKDGQCGSPLVSTRDGFIVGIHSASNFTNTNNYFTSVPKNFMELLTNQEAQQWVSMWRLNADSVLWGGHKVFMVKPEEPFQPVKEATQL [G202M],0.0821,0.0697,,,0.0747,0.0332,,,0.0606,0.0783,,0.076,0.0428,,,0.0551,,0.0291,0.0555,
MGESLFKGPRDYNPISSSICHLTNESDGHTTSLYGIGFGPFIITNKHLFRRNNGTLVVQSLHGVFKVKDATTLQQHLVDGRDMIIIRMPKDFPPFPQKLKFREPQREERICLVTTNFQTKSMSSMVSDTSCTFPSGDGIFWKHWIQTKDGQCGSPLVSTRDGFIVGIHSASNFTNTNNYFTSVPKNFMELLTNQEAQQWVSGWRLNADSVLWGGHKVFMVKPEEPFQPVKEATQL [T70A],0.0855,,,,,0.0646,,0.0499,0.0628,0.0642,0.0535,0.0836,0.0654,0.0614,,,,0.0687,,
MGESLFKGPRDYNPISSSICHLTNESDGHTTSLYGIGFGPFIITNKHLFRRNRGTLVVQSLHGVFKVKDTTTLQQHLVDGRDMIIIRMPKDFPPFPQKLKFREPQREERICLVTTNFQTKSMSSMVSDTSCTFPSGDGIFWKHWIQTKDGQCGSPLVSTRDGFIVGIHSASNFTNTNNYFTSVPKNFMELLTNQEAQQWVSGWRLNADSVLWGGHKVFMVKPEEPFQPVKEATQL [N53R],0.0829,,0.0785,0.0696,0.0729,0.0889,0.0758,0.0654,0.0868,0.0708,0.0543,0.0853,,0.0589,,0.045,,0.0636,,
MGESLFKGPRDYNPISSSICHLTNESDGHTTSLYGIGFGPFIITNKHLFRRNNGTLVVQSLHGVFKVKDTTTLQQHLVDGRDMIIIRMPKDFPPFPQKLKFREPQREERICLVTTNFQTKSMSSMVHDTSCTFPSGDGIFWKHWIQTKDGQCGSPLVSTRDGFIVGIHSASNFTNTNNYFTSVPKNFMELLTNQEAQQWVSGWRLNADSVLWGGHKVFMVKPEEPFQPVKEATQL [S127H],0.0823,0.12,,,,,0.0595,0.0627,0.102,,0.0373,0.104,0.0634,0.104,,0.0656,0.0518,,0.0789,
MGESLFKGPRDYNPISSSICHLTNESDGHTTSLYGIGFGPFIITNKHLFRRNNGTLVVQSLHGVFKVKDTTTLQQHLVDGRDMIIIRMPKDFPPFPQKLKFREPQREERICLVTTNFQTKSMSSMVSDTSCTFPSGDGIFWKHWIQTKDGQCGSPLVSTRDGFIVGIHSASNFTNTNNYFTSVPKNFMELLTNQEAQQWVSGWRLNADSVLWMGHKVFMVKPEEPFQPVKEATQL [G213M],0.056,0.0509,0.0588,,0.0621,0.0542,0.0515,0.0634,0.0573,0.112,0.0574,0.06,0.0627,,0.053,0.0531,0.0539,,0.0528,
MGESLFKGPRDYNPISSSICHLTNESDGHTTSLYGIGFGPFIITNKHLFRRNNGTLVVQSLHGVFKVKDTTTLQQHLVDGRDMIIIRMPKDFPPFPQKLKFREPQREERICLVVTNFQTKSMSSMVSDTSCTFPSGDGIFWKHWIQTKDGQCGSPLVSTRDGFIVGIHSASNFTNTNNYFTSVPKNFMELLTNQEAQQWVSGWRLNADSVLWGGHKVFMVKPEEPFQPVKEATQL [T114V],0.13,0.11,0.0778,0.0743,0.078,0.0655,0.0373,0.0682,0.0745,0.0614,0.0547,0.102,0.0653,0.062,0.0671,0.0614,0.0481,0.0579,0.0745,0.0658
MGESLFKGPRDYNPWSSSICHLTNESDGHTTSLYGIGFGPFIITNKHLFRRNNGTLVVQSLHGVFKVKDTTTLQQHLVDGRDMIIIRMPKDFPPFPQKLKFREPQREERICLVTTNFQTKSMSSMVSDTSCTFPSGDGIFWKHWIQTKDGQCGSPLVSTRDGFIVGIHSASNFTNTNNYFTSVPKNFMELLTNQEAQQWVSGWRLNADSVLWGGHKVFMVKPEEPFQPVKEATQL [I15W],0.0866,0.101,0.0831,0.0718,0.1,0.0549,0.0642,0.0641,0.0832,0.0626,0.0441,0.0934,0.0653,0.0777,,0.0549,0.06,0.0609,0.0743,
